# From PubChem BioAssay (NCATS)
# This list was built around the results that the source calls inconclusive (neither active nor inactive); the mix of calls is not that of the screen. For part of these data: Potencies of inconclusive entries are left out as doubtful fits. For part of these data: “Side channel” marks fits to a control or component signal instead of the main read-out. The source made the active and inactive calls. Unless noted, calls follow the shape of the full dose curve.
# Columns and labels:
# [1] = biological target: Estrogen receptor (Homo sapiens) (UniProt P03372); experiment: qHTS assay for small molecule antagonists of estrogen receptor alpha signaling (AID 588513; active = well fitted curve in the direction sought with a large enough effect in the signal ratio, with a control signal flat, not every such curve was filed as active; inconclusive = small, poorly fitted or top-dose-only effect, or effect the other way, or a change in a side signal; inactive = no such curve, though single readings can be large or run the other way; the % refers to the signal ratio; also: potency is read from the fitted curve at half-maximal effect; as to activity, negative = inhibition: % is scaled to controls: 0 for no effect and ±100 for the full control effect); conditions: ER-alpha-UAS-bla HEK293, beta-lactamase ratio, antagonist mode; activity, negative = inhibition: at 76.9 µM (top of the series) unless noted
# Method in brief: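 ER-alpha-UAS-bla GripTite HEK 293 cells in 2% charcoal/dextran-treated FBS medium; compounds titrated (1:2, duplicate), then stimulated with 0.5 nM 17-beta-estradiol for 18 h at 37C. CCF4 beta-lactamase fluorescence; Hill-fit IC50 and efficacy.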
# [2] = biological target: Peroxisome proliferator-activated receptor gamma (Homo sapiens) (UniProt P37231); experiment: qHTS assay for small molecule antagonists of peroxisome proliferator-activated receptor gamma signaling (AID 588537; active = well fitted inhibition curve with a large enough effect in the signal ratio, with a control signal flat, not every such curve was filed as active; inconclusive = small, poorly fitted or top-dose-only effect, or effect the other way, or a change in a side signal; the % refers to the signal ratio;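 also: reporter cells co-stimulated with 50 nM rosiglitazone agonist during compound treatment; % of control where 0% means no effect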); conditions: HEK293 PPARg-UAS-bla, beta-lactamase ratio, antagonist mode; activity, negative = inhibition: at 76.8 µM (top of the series)
# Method in brief: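 Compounds are tested as concentration series for inhibition of rosiglitazone-driven (50 nM) reporter expression in GeneBLAzer PPAR-gamma-UAS-bla HEK293 cells. After 16 h at 37 C, CCF4 substrate is added for 2 h at room temperature and blue/green fluorescence is measured.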
# [3] = qHTS assay for small molecule agonists of the antioxidant response element (ARE) signaling pathway (AID 651741; active = well fitted activation curve with a large enough effect in the signal ratio; inconclusive = small, poorly fitted or top-dose-only effect, or effect the other way, or a change in a side signal; the % refers to the signal ratio; also: potency is read from the fitted curve at half-maximal effect; as to activation: % of control where 0% means no effect); conditions: HepG2 ARE-bla reporter, beta-lactamase FRET ratio, 16 h; activation: at 96 µM (top of the series) unless noted
# Method in brief: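 Reporter: beta-lactamase under ARE, stably in HepG2. Exposure: 16 h, 37 C, compounds delivered in DMSO by pin tool after 5 h cell preincubation. Readout: FRET substrate fluorescence after 2 h at RT.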
# [4] = qHTS assay for small molecule activators of the p53 signaling pathway (AID 651743; active = well fitted activation curve with a large enough effect in the signal ratio, not every such curve was filed as active; inconclusive = small, poorly fitted or top-dose-only effect, or a change in a side signal; the % refers to the signal ratio; also: potency is read from the fitted curve at half-maximal effect; as to activation: % of control where 0% means no effect); conditions: HCT-116 p53RE-bla, beta-lactamase FRET ratio, 16 h; activation: hits give high values
# Method in brief: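 Agonist-mode quantitative HTS in HCT-116 cells carrying a p53-response-element beta-lactamase reporter; 16 h compound treatment at 37 C, then FRET substrate loading for 2 h at room temperature and fluorescence read.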
# [5] = qHTS assay for small molecule agonists of the antioxidant response element (ARE) signaling pathway measured by Nrf2-dependant transcriptional activity (AID 720636; active = well fitted curve in the direction sought with a large enough effect in the repeat runs; inconclusive = weak or mixed curves; inactive = no such curve, though single readings can be large; an effect the other way counts as inactive or inconclusive; also: potency is read from the fitted curve at half-maximal effect)
# Method in brief: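 Attachment 6 hr at 37 C, then compound versus DMSO vehicle for 16 hr in ARE-luc HepG2 cells (1% dialyzed FBS); luminescence recorded 30 min after ONE-Glo addition at room temperature.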
# [6] = qHTS assay for cell viability of the p53RE-bla HCT-116 cell line (AID 743292; active = well fitted curve in the direction sought with a large enough effect; inconclusive = small, poorly fitted or top-dose-only effect, or another doubt; inactive = no such curve, though single readings can be large; an effect the other way counts as inactive or inconclusive; also: potency is read from the fitted curve at half-maximal effect; nearly all actives have a fitted effect of over 55% in size)
# Method in brief: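 Compound-exposed HCT-116 (p53RE-bla) cells, 4,000 per well, were kept 16 h at 37 C following a 5 h preincubation. Cell number was estimated from total ATP by CellTiter-Glo luminescence read after 30 min at room temperature.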
# [7] = Cellular Toxicity (caspase-3) Mesangial (AID 660; active = well fitted curve in the direction sought with a large enough effect; inconclusive = small, poorly fitted or top-dose-only effect, or another doubt; inactive = no such curve, though single readings can be large; an effect the other way counts as inactive or inconclusive;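 also: combined caspase 3 and 7 activity read by Caspase-Glo luminescence; cells exposed to compound for 16 h before the caspase read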); conditions: mesangial cells, normalized: DMSO 0%, 100 µM tamoxifen 100%; at 91.7 µM (top of the series)
# Method in brief: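 Seed cells derived from normal human renal glomeruli, incubate 5 h, add compounds across concentrations and incubate 16 h at 37 °C. Caspase 3/7 activation is then quantified by luciferase light, with AC50 derived by Hill modeling.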
# [8] = MultiTox-Fluor Cytotoxicity Assay - LYMP1-002 - Dead Cells (AID 960; active = well fitted curve in the direction sought with a large enough effect; inconclusive = small, poorly fitted or top-dose-only effect, or another doubt; inactive = no such curve, though single readings can be large; an effect the other way counts as inactive or inconclusive; also: potency is read from the fitted curve at half-maximal effect; nearly all actives have a fitted effect of over 60% in size); conditions: LYMP1-002 lymphoblastoid cells, dead-cell protease fluorescence; cytotoxicity (dead cells): at 46.1 µM (top of the series)
# Method in brief: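 Cells were plated, rested 5 hr, then treated with compound dilution series for 16 hr at 37 C. After adding substrate reagent and 60 min at room temperature, dead-cell protease fluorescence gave concentration-response curves fitted by the Hill equation.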
# [9] = Cell Viability - LYMP2-011 (AID 969; active = well fitted curve in the direction sought with a large enough effect; inconclusive = small, poorly fitted or top-dose-only effect, or another doubt; inactive = no such curve, though single readings can be large; an effect the other way counts as inactive or inconclusive;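 also: 0% = DMSO only and full inhibition = 92 µM tetraoctylammonium bromide; nearly all actives have a fitted effect of over 60% in size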)
# Method in brief: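 In this qHTS cytotoxicity format, compounds are tested across concentrations on human lymphoblastoid cells in complete medium for 24 hours at 37 C. Viability is taken as cellular ATP measured by luciferase luminescence.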
# [10] = Cell Viability - LYMP2-023 (AID 975; active = well fitted curve in the direction sought with a large enough effect; inconclusive = small, poorly fitted or top-dose-only effect, or another doubt; inactive = no such curve, though single readings can be large; an effect the other way counts as inactive or inconclusive;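 also: plate controls were DMSO only for no effect and 92 µM tetraoctylammonium bromide control for full effect; nearly all actives have a fitted effect of over 55% in size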)
# Method in brief: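 Steps: seed 2500 human lymphoblastoid cells per well, incubate 5 hr at 37 C, add compound for 24 hr at 37 C, add CellTiter-Glo, hold 30 min at room temperature, read luminescence. AC50 derived by Hill modelling.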
# [11] = Cell Viability - LYMP2-010 (AID 981; active = well fitted curve in the direction sought with a large enough effect; inconclusive = small, poorly fitted or top-dose-only effect, or another doubt; inactive = no such curve, though single readings can be large; an effect the other way counts as inactive or inconclusive; also: % is scaled to controls: 0 for no effect and ±100 for the full control effect; nearly all actives have a fitted effect of over 55% in size)
# Method in brief: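 Steps: seed 2500 LYMP2-010 cells per well; incubate 5 hr at 37 C; add compound; incubate 24 hr at 37 C; add CellTiter-Glo, wait 30 min at room temperature; read luminescence. Concentration-response fitted to Hill equation for AC50.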
# [12] = biological target: Peroxisome proliferator-activated receptor gamma (Homo sapiens) (UniProt P37231); experiment: qHTS assay for small molecule agonists of peroxisome proliferator-activated receptor gamma signaling (AID 588536; active = well fitted curve in the direction sought with a large enough effect in the signal ratio, with a control signal flat, not every such curve was filed as active; inconclusive = small, poorly fitted or top-dose-only effect, or effect the other way, or a change in a side signal; inactive = no such curve, though single readings can be large or run the other way; the % refers to the signal ratio;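 also: 0% = DMSO basal wells and 100% = rosiglitazone at 2 µM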); conditions: HEK293 PPARg-UAS-bla, beta-lactamase ratio, 16 h; activation: at 76.7 µM (top of the series), percent of rosiglitazone response, DMSO as zero unless noted
# Method in brief: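 Compound treatment: 16 h, 37 C, HEK293 GeneBLAzer cells. Detection: CCF4, 2 h RT. Values: Hill-fit EC50, efficacy as % of 2 uM rosiglitazone.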
# [13] = qHTS assay to identify small molecules that stimulate interleukin-8 (IL-8) secretion (AID 651758; active = well fitted activation curve with a large enough effect in the signal ratio; inconclusive = small, poorly fitted or top-dose-only effect, or effect the other way, or a change in a side signal; the % refers to the signal ratio; also: potency is read from the fitted curve at half-maximal effect); conditions: HTRF ratio (665/615); activation: at 92.2 µM (top of the series)
# Method in brief: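 Quantitative HTS in THP-1 monocytic cells at 2000 cells per well, with 16 hrs compound incubation at 37 C. IL-8 in the medium was then quantified by HTRF immunoassay, read after 1-3 hrs at room temperature.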
# [14] = biological target: Peroxisome proliferator-activated receptor delta (Homo sapiens) (UniProt Q03181); experiment: qHTS assay for small molecule antagonists of peroxisome proliferator-activated receptor delta signaling (AID 588535; active = well fitted inhibition curve with a large enough effect in the signal ratio, with a control signal flat, not every such curve was filed as active; inconclusive = small, poorly fitted or top-dose-only effect, or effect the other way, or a change in a side signal; inactive = no such curve, though single readings can be large or run the other way; the % refers to the signal ratio); conditions: HEK293T PPARd-UAS-bla, beta-lactamase FRET ratio, 18 h; activity change, negative = inhibition: at 76.7 µM (top of the series) unless noted
# Method in brief: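 Inhibition of PPAR-delta response element-driven beta-lactamase expression is measured in HEK293T cells exposed to a compound titration series for 18 hrs at 37 C. Half-maximal inhibition comes from Hill equation fitting.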
# [15] = biological target: Retinoic acid receptor RXR-alpha (Homo sapiens) (UniProt P19793); experiment: qHTS assay for small molecule agonists of retinoid X receptor alpha signaling (AID 588544); conditions: HEK293T RXRa-UAS-bla, beta-lactamase reporter, 18 h; activation: at 76.7 µM (top of the series) unless noted; also: potency is read from the fitted curve at half-maximal effect;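 as to activation: 0% = DMSO basal wells and 100% = reference agonist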
# [16] = biological target: Thyroid hormone receptor beta (Homo sapiens) (UniProt P10828); experiment: qHTS assay for small molecule antagonists of thyroid hormone receptor beta signaling (AID 588547; active = well fitted inhibition curve with a large enough effect in the signal ratio, with a control signal flat, not every such curve was filed as active; inconclusive = small, poorly fitted or top-dose-only effect, or effect the other way, or a change in a side signal; the % refers to the signal ratio; also: potency is read from the fitted curve at half-maximal effect); conditions: TR-UAS-bla HEK293, beta-lactamase ratio, antagonist mode, 18 h
# Method in brief: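 TR-UAS-bla GripTite HEK293 cells in 2% charcoal/dextran FBS medium were preincubated 4 h at 37 C, given compound (0.59 nM to 92 uM) plus 0.4 nM T3 (final) for 18 h, then CCF4 for 2 h at RT; Hill fit gave IC50.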
# [17] = biological target: Estrogen receptor (Homo sapiens) (UniProt P03372); experiment: qHTS assay for small molecule agonists of estrogen receptor alpha signaling (AID 588514); conditions: ER-alpha-UAS-bla HEK293, beta-lactamase ratio, 18 h; activation: at 76.8 µM (top of the series), percent of full estradiol response, vehicle zero;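 also: 0% = vehicle only and 100% = reference agonist; nearly all actives have a fitted effect of over 70% in size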
# Method in brief: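 Efficacy is expressed against 20 nM 17-beta-estradiol (100%) and DMSO basal (0%); EC50 from Hill equation. Assay: beta-lactamase reporter in ER-alpha-UAS-bla HEK 293 cells, 18 h compound incubation, CCF4 detection.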
# [18] = biological target: Bile acid receptor (Homo sapiens) (UniProt Q96RI1); experiment: qHTS assay for small molecule antagonists of farnesoid X receptor signaling (AID 588526); conditions: HEK293T FXR-UAS-bla, beta-lactamase ratio, antagonist mode; activity change, negative = inhibition: at 76.7 µM (top of the series); also: % is scaled to controls: 0 for no effect and ±100 for the full control effect
# Method in brief: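 Concentration-response titrations were fitted to the Hill equation for half-maximal inhibition and maximal response, with data normalised to 50 uM chenodeoxycholic acid and DMSO control wells. Cells: FXR-UAS-bla HEK293T, dialyzed FBS.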
# [19] = biological target: Glucocorticoid receptor (Homo sapiens) (UniProt P04150); experiment: qHTS assay for small molecule agonists of glucocorticoid receptor signaling (AID 588532; active = well fitted curve in the direction sought with a large enough effect in the signal ratio, with a control signal flat; inconclusive = small, poorly fitted or top-dose-only effect, or a change in a side signal; inactive = no such curve, though single readings can be large or run the other way; the % refers to the signal ratio;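 also: 100% = dexamethasone at 0.1 µM and 0% = DMSO only wells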); conditions: HeLa MMTV-bla, beta-lactamase ratio, agonist, 18 h; activation: hits give high values, percent of dexamethasone control, DMSO zero
# Method in brief: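 Stimulation of a glucocorticoid response element-driven beta-lactamase gene was measured in HeLa cells. Responses were scaled between DMSO basal and 0.1 uM dexamethasone, then fitted for half-maximal stimulation.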
# [20] = biological target: Peroxisome proliferator-activated receptor delta (Homo sapiens) (UniProt Q03181); experiment: qHTS assay for small molecule agonists of peroxisome proliferator-activated receptor delta signaling (AID 588534); conditions: HEK293T PPARdelta-UAS-bla, beta-lactamase ratio, 18 h; activation: at 76.7 µM (top of the series); also: potency is read from the fitted curve at half-maximal effect
# Method in brief: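 Agonist-mode qHTS; reporter cells, 5 hrs 37 C pre-incubation; compound titration, 18 hrs 37 C; CCF4 dye, 2 hrs RT; fluorescence read. EC50/efficacy via Hill fit.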
# [21] = biological target: Vitamin D3 receptor (Homo sapiens) (UniProt P11473); experiment: qHTS assay for small molecule antagonists of vitamin D receptor signaling (AID 588541); conditions: HEK293T VDR-UAS-bla, beta-lactamase ratio, antagonist mode; activity change, negative = inhibition: at 76.7 µM (top of the series);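 also: receptor activated by calcitriol during compound treatment; % is scaled to controls: 0 for no effect and ±100 for the full control effect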
# [22] = biological target: Vitamin D3 receptor (Homo sapiens) (UniProt P11473); experiment: qHTS assay for small molecule agonists of vitamin D receptor signaling (AID 588543); conditions: HEK293T VDR-UAS-bla, beta-lactamase ratio, 16 h; activation: at 76.8 µM (top of the series); also: potency is read from the fitted curve at half-maximal effect
# Method in brief: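 VDR-UAS-bla HEK293T cells, 2000/well, 2% charcoal-stripped FBS; compound titration 16 h at 37 C; CCF4 beta-lactamase ratio read. Normalized to 50 nM 1-alpha,25-dihydroxyvitamin D3 (100%) and DMSO; Hill fit gives EC50, efficacy.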
# [23] = biological target: Retinoic acid receptor RXR-alpha (Homo sapiens) (UniProt P19793); experiment: qHTS assay for small molecule antagonists of retinoid X receptor alpha signaling (AID 588546; active = well fitted inhibition curve with a large enough effect in the signal ratio, with a control signal flat, not every such curve was filed as active; inconclusive = small, poorly fitted or top-dose-only effect, or effect the other way, or a change in a side signal; inactive = no such curve, though single readings can be large or run the other way; the % refers to the signal ratio;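 also: cells stimulated with 9-cis-retinoic acid as agonist; % is scaled to controls: 0 for no effect and ±100 for the full control effect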); conditions: HEK293T RXRa-UAS-bla, beta-lactamase ratio, antagonist mode
# Method in brief: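 Beta-lactamase reporter inhibition, read as CCF4 fluorescence ratio (ex 405, em 460/530 nm) after 2 h at RT. HEK293T UAS-bla cells, 2500/well, were stimulated with 9-cis-RA at 500 or 100 nM final alongside test compound for 18 h at 37 C.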
# Tags tell the direction and shape of the fitted curve or compound fluorescence and quenching.
# Sequence of UniProt P03372 (P03372 whole entry, looked up): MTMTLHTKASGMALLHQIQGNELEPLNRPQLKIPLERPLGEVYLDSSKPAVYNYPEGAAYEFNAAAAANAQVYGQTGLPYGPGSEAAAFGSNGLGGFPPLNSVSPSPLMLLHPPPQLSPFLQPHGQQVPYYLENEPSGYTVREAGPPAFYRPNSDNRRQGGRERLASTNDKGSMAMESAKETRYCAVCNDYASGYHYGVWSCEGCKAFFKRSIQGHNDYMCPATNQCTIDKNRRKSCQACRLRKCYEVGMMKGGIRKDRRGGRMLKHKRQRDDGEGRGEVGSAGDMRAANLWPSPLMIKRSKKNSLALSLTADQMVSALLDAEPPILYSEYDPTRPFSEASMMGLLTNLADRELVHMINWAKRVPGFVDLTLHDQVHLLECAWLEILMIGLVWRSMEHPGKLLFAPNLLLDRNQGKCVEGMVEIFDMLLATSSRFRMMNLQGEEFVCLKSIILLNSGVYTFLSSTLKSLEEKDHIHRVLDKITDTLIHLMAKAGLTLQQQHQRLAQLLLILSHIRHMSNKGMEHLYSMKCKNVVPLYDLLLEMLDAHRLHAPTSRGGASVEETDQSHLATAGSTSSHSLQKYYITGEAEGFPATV
# Sequence of UniProt P19793 (P19793 whole entry, looked up): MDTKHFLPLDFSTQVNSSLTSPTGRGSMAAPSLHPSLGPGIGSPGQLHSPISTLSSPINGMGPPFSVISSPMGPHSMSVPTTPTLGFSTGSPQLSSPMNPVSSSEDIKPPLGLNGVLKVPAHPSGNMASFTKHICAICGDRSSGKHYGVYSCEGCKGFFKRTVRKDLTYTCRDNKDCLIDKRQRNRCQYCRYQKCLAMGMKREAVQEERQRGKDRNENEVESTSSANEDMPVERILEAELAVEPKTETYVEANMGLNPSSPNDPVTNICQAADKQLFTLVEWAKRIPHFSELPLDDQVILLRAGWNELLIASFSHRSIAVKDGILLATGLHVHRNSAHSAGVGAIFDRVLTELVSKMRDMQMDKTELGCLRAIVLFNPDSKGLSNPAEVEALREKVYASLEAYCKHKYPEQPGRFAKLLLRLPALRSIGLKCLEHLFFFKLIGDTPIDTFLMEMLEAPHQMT
# Sequence of UniProt Q03181 (Q03181 whole entry, looked up): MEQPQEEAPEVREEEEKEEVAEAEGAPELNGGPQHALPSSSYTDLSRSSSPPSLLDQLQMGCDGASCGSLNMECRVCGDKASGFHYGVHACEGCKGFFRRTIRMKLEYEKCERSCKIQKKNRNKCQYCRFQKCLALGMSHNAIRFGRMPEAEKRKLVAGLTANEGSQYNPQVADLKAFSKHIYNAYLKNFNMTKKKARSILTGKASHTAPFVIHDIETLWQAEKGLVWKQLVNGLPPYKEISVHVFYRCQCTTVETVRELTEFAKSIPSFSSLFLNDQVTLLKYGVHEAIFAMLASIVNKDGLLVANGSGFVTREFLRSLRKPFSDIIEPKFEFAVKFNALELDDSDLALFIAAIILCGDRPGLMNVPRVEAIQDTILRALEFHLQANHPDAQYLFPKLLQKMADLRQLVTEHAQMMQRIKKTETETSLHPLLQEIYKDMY
# Sequence of UniProt P10828 (P10828 whole entry, looked up): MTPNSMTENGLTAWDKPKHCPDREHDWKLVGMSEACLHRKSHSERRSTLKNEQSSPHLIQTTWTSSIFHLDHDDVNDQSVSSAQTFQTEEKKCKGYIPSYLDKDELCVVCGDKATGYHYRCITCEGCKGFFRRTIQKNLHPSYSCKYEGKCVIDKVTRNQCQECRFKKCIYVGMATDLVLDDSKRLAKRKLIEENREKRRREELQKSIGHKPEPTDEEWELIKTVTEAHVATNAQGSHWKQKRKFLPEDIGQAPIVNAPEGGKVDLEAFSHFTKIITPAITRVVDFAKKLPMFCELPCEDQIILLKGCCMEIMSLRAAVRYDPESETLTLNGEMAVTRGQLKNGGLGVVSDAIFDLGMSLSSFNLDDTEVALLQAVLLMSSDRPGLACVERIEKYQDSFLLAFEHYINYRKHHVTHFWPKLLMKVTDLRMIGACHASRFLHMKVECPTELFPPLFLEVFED
# Sequence of UniProt P04150 (P04150 whole entry, looked up): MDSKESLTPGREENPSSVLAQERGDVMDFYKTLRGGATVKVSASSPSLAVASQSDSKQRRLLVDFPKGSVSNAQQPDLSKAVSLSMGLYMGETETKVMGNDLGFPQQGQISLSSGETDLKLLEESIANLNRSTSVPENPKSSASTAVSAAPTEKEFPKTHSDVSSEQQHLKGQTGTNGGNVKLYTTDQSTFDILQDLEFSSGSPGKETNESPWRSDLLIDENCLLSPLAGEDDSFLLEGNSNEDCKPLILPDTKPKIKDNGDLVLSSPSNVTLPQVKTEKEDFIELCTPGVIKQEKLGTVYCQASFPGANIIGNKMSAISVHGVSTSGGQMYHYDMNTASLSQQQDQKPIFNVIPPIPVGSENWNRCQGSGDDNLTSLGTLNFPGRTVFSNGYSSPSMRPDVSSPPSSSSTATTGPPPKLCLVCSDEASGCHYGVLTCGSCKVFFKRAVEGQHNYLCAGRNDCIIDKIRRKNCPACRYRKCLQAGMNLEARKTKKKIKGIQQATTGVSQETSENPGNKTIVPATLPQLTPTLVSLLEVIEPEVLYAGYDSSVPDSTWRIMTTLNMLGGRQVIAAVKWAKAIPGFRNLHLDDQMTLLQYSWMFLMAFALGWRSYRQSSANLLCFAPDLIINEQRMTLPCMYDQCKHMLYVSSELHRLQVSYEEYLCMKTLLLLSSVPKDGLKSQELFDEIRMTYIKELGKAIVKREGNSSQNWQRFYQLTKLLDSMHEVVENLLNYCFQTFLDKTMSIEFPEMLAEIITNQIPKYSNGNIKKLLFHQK
# Sequence of UniProt Q96RI1 (Q96RI1 whole entry, looked up): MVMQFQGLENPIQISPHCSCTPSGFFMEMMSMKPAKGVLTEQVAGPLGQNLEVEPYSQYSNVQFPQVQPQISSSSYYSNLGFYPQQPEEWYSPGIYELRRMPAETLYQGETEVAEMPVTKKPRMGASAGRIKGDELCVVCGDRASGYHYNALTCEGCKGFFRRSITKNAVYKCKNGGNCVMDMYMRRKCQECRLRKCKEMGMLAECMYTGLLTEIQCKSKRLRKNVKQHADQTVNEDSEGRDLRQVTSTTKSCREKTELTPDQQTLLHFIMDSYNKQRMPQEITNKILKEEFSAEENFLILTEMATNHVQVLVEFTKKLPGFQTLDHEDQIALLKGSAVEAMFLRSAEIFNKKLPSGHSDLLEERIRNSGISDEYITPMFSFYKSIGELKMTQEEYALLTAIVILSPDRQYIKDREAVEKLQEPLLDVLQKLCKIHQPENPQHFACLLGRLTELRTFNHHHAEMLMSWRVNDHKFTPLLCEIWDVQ
structure (smiles),measurement,setting,value
c1cc[n+]2c(c1)-c1cccc[n+]1CC2,Potency,[1],active: 25.1 µM [inhibitor]
same,Potency,[2],inactive
same,Potency,[3],active: 8.63 µM
same,Potency,[4],"inconclusive [side channel, falling, partial curve]"
same,Potency,[5],"inconclusive [activator, partial curve, poor fit]"
same,Potency,[6],"inconclusive [cytotoxic, full curve]"
C=CC(=C)C,caspase-3 activation,[7],inactive: -0.151%
same,Potency,[8],"inconclusive [cytotoxic, partial curve, poor fit]"
same,Potency,[9],inactive
same,Potency,[10],inactive
same,Potency,[11],inactive
same,Potency,[1],inactive
same,Potency,[12],inactive
same,Potency,[2],inactive
same,activation,[3],inconclusive: 10.5%
same,Potency,[13],"inconclusive [rising, single point]"
CS(=O)(=O)c1cc(C(F)(F)F)ccc1C(=O)c1cnoc1C1CC1,Potency,[1],inactive
same,Potency,[14],inactive
same,activation,[12],inconclusive: 17%
same,activation,[15],inconclusive: 25.8%
same,activity change % (negative = inhibition),[16],inconclusive: 17.4%
same,Potency,[3],"inconclusive [activator, partial curve, poor fit]"
Clc1ccc([C@@]2(Cn3cncn3)C[C@H](Br)CO2)c(Cl)c1,activation,[17],inconclusive: 10.1%
same,Potency,[18],inactive
same,activation,[19],inactive: 2.56%
same,Potency,[20],"inconclusive [side channel, rising, single point]"
same,"activity change, negative = inhibition",[14],inconclusive: 8.1%
same,"activity, negative = inhibition",[2],inconclusive: -25.4%
same,"activity change, negative = inhibition",[21],inconclusive: 10.4%
same,Potency,[22],"inconclusive [side channel, rising, partial curve]"
same,Potency,[15],active: 14.1 µM
CCOP(=S)(OCC)SCSP(=S)(OCC)OCC,"activity, negative = inhibition",[1],inconclusive: -3.82%
same,Potency,[14],inactive
same,Potency,[2],inactive
same,activation,[15],inconclusive: -47.7%
same,Potency,[16],"inconclusive [side channel, falling, full curve, poor fit]"
same,activation,[3],inconclusive: 13%
C/C(=N\C(N)=O)N(C)Cc1ccc(Cl)nc1,Potency,[1],inactive
same,Potency,[12],inactive
same,max response,[23],inactive: -3.51%
same,activation,[3],inconclusive: 14.9%
same,activation,[4],inactive: -4.92%
